Assay results: PubChem BioAssay AID1434 (Sanford-Burnham Center for Chemical Genomics, 2008)
Values joined by “and” are separate entries in the source; they are usually repeats but may differ in a detail not shown here. Identical values can stand only once. Some of the results follow. Shown are side measurements of this screen, not its main read-out; they come without a call. Compounds called inactive in the main read-out are mostly missing here.

The compounds below were run against Runt-related transcription factor 1 (Homo sapiens) + Core-binding factor subunit beta (Homo sapiens) (UniProt Q01196+Q13951) (assay: inhibitors of RUNX1 Runt–CBFb-SMMHC binding, primary screen, biochemical, FRET, Cerulean-Runt, Venus-CBFb-SMMHC, uHTS (AID 1434;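 further: 0% = DMSO wells and 100% = wells with excess untagged CBFb-SMMHC; inhibitors lower the FRET ratio by blocking Runt binding to CBFb-SMMHC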)). Conditions: Cerulean-Runt/Venus-CBFb-SMMHC FRET ratio 530/480, 1 h; retest duplicate average; at 20 µM; stronger effect = higher value.
UniProt Q01196, sequence (Q01196 whole entry, looked up): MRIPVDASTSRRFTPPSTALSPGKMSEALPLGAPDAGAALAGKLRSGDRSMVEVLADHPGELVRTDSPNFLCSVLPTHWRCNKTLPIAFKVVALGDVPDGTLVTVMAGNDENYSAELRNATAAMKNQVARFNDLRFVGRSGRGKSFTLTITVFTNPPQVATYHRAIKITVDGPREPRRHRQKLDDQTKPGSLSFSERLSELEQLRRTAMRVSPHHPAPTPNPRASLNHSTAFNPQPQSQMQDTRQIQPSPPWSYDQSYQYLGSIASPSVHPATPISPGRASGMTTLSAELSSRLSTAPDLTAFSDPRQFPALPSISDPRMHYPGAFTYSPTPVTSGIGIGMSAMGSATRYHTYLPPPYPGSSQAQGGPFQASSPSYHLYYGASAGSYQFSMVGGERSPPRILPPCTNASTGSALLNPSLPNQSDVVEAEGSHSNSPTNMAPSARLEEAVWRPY
UniProt Q01196, sequence (Q13951 whole entry, looked up): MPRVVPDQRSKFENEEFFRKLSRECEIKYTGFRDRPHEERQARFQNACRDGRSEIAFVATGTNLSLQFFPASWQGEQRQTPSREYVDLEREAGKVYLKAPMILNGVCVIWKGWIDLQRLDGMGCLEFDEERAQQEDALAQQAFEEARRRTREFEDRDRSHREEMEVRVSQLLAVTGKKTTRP

| Compound | inhibition |
| --- | --- |
| CCc1cc(=O)oc2c(C)c(O)c(CN3CCCCC3)cc12 | 124% |
| CC1=NOC(=O)/C1=C\c1ccc(-c2cccc(Cl)c2)o1 | 57.9% |
| COCCOC(=O)c1c(N)n(CCCN2CCOCC2)c2nc3ccccc3nc12 | 100% |
| CC1=C(C(=O)OCC2CCCO2)C(c2ccncc2)C2=C(CC(C)(C)CC2=O)N1 (stereo not drawn) | 99.4% |
| Cc1cccc(NC(=O)CN2C(=O)N/C(=C\c3ccc(-c4cccc(C(=O)O)c4)o3)C2=O)c1 | 116% |
| Nc1nc2nc(-c3ccc(OCc4ccccc4)cc3)cc(C(F)(F)F)n2n1 | 108% |
| COc1ccc(S(=O)(=O)N(C(=O)C(C)C)c2ccc3oc(=O)sc3c2)cc1 | 52.9% |
| Cc1cc(C)c2c(n1)nn1c(NCCCN(C)C)cc(C)nc21 | 64% |
| Cc1ccc(C2C3=C(CC(C)(C)CC3=O)Nc3[nH]c(=S)[nH]c(=O)c32)cc1 (stereo not drawn) | 60.4% |
| CCN1C(=C(C#N)C#N)C=Cc2cc(C)ccc21 | 70.6% |
| CC1CCc2c(sc(Nc3nc4c(F)cccc4s3)c2C(N)=O)C1 (stereo not drawn) | 166% |
| COc1ccc2cc(-c3nc4ccccc4n3C)c(=O)oc2c1 | 130% |
| CS(=O)(=O)c1nsc2nc(=O)c(/C=C3\C=Nc4ccccc43)c(N)n12 | 80.2% |
| Nc1ccccc1-c1nc2ccccc2s1 | 100% |
| COc1ccc2nc3c(cc2c1)c(NC(=O)C1CCCO1)nn3CC(C)C (stereo not drawn) | 72.9% |
| CN1CC=C2C(C#N)=C(N)C(C#N)(C#N)C(c3ccsc3)C2C1 (stereo not drawn) | 72.9% |
| O=C(N/N=C/c1c(O)n(Cc2ccccc2)c(=O)c2ccccc12)c1cccnc1 | 70.6% |
| O=C(O)c1cccc(S(=O)(=O)Nc2ccc3oc(=O)sc3c2)c1 | 55.1% |
| COc1ccc(-n2c(N)c(C(=O)NCc3ccco3)c3nc4ccccc4nc32)c(OC)c1 | 106% |
| CCCCn1c(=O)nc2n(-c3ccc(C)cc3)c3ccccc3cc-2c1=O | 71.5% |
| CCc1cc2c(=O)nc3n(c2s1)Cc1ccccc1/C3=C(/O)c1ccccc1Cl | 72.9% |
| COCCN(CCOC)c1cc(C)c(C#N)c2nc3ccccc3n12 | 71.5% |

| Compound | inhibition |
| --- | --- |
| COCCn1c(N)c(C#N)c2nc3ccccc3nc21 | 72.9% |
| Cc1cc(=O)oc2c(CN3CCN(C)CC3)c(O)c(Cl)cc12 | 148% |
| CCN(CC)c1ccc2cc(S(=O)(=O)c3ccc(Cl)cc3)c(=O)oc2c1 | 71.5% |
| Cc1ccc(C)c(S(=O)(=O)c2c(N)n(/N=C/c3ccco3)c3nc4ccccc4nc23)c1 | 61.7% |
| Cc1cccc(N2CCN(C(=O)Cn3sc4nc(C)cc(C)c4c3=O)CC2C)c1 (stereo not drawn) | 55.5% |
| COC(=O)C1=CNC=C(C(=O)OC)C1c1ccc(Cl)cc1 | 95.2% |
| Cc1ccc(S(=O)(=O)Oc2ccc(C3C4=C(CCCC4=O)N(CCC(=O)O)C4=C3C(=O)CCC4)cc2Cl)cc1 | 71.5% |
| O=C(Nc1cccc(C(F)(F)F)c1)c1cc2c(s1)-c1ccccc1OC2 | 89.1% |
| O=C(Nc1ccc2nc(-c3cccs3)c(-c3cccs3)nc2c1)N1CCOCC1 | 71.5% |
| Cc1c(-c2cccc(Cl)c2)nc2ccccc2c1C(=O)OC/C(O)=C(\C#N)c1nc2ccccc2[nH]1 | 67% |
| CCOC(=O)c1cc2c(=O)n3cccc(C)c3nc2n(CCOC)c1=NC(C)=O | 174% |
| CC[C@H](C)/C=C(C)/C=C/C1=CC2=CC(=O)[C@]3(C)OC(=O)[C@@H](C(C)=O)[C@@H]3C2=CO1 | 70.6% |
| COc1ccc2c(c1)O/C(=C\c1ccco1)C2=O | 59.3% |
| N#Cc1c(-c2ccc(F)cc2)c2c([nH]c1=O)-c1ccccc1OC2 | 70.6% |
| c1ccc(-c2onc3cc4c(cc23)OCCO4)cc1 | 131% |
| O=C(O)c1ccc(-c2ccc(/C=C3\NC(=O)N(Cc4ccc(Cl)cc4)C3=O)o2)cc1 | 108% |
| COCCOC(=O)C1=C(C)NC2=C(C(=O)CC(C)(C)C2)C1c1cccnc1 (stereo not drawn) | 111% |
| Cc1cc(-n2c(C)cc(C(=O)CSc3ncnc4ccccc34)c2C)no1 | 101% |
| CC(=O)Oc1ccc2cc(-c3ccccc3)c(=O)oc2c1 | 70.6% |
| Cc1cc(NS(=O)(=O)c2ccc(NC(=O)c3cc4c(=O)n5ccccc5nc4s3)cc2)nc(C)n1 | 75.7% |
| COCc1cc(=O)n2c([nH]c3ccccc32)c1C#N | 57.5% |
| O=C(Nc1sc2c(c1C(=O)NCc1ccco1)CCCC2)c1ccc2c(c1)OCO2 | 80.5% |

| Compound | inhibition |
| --- | --- |
| COc1ccc2nc(NCCNC(=S)NCCCN3CCOCC3)c(C#N)cc2c1 | 70.6% |
| Clc1ccc2nc(N3CCNCC3)nc(-c3ccccc3)c2c1 | 72.9% |
| Cc1ccc(CN2C(=O)N/C(=C/c3ccc(-c4ccc(C(=O)O)cc4)o3)C2=O)cc1 | 118% |
| COc1ccc(CCn2c(=N)c(C(=O)N3CCN(C)CC3)cc3c(=O)n4ccccc4nc32)cc1 | 135% |
| Cc1c(Cc2ccccc2)c(=O)oc2c(CN(C)C)c(O)c(Cl)cc12 | 157% |
| O=C(CSc1ncnc2ccccc12)c1cccs1 | 103% |
| Cc1ccc2nc3c(cc(C#N)c(=O)n3CCN3CCOCC3)c(=O)n2c1 | 157% |
| COCCCNC(=S)NCCCNc1nc2cc(C)cc(C)c2cc1C#N | 83.6% |
| CC(=O)Nc1cccc(N/C=C(\C=O)c2nc3ccccc3o2)c1 | 70.5% |
| CC(=Nc1cccc(C)c1)c1sc2ccccc2c1O | 70.8% |
| Nc1c2ccccc2nc2ccccc12 | 70.6% |
| Cc1cc(C)c2c(n1)sc1c(-c3ccccc3)c(C#N)c(N)nc12 | 100% |
| Cn1c(=N)c(S(=O)(=O)c2ccccc2)cc2c(=O)n3ccccc3nc21 | 71.5% |
| COCCN1C=C(C(=O)OC)C(c2ccccc2Cl)C(C(=O)OC)=C1 | 70.8% |
| OCCNc1c2ccccc2nc2c(F)c(F)c(F)c(F)c12 | 71.5% |
| CCc1nnc(NC(=O)c2sc3nc4c(cc3c2N)CCCCC4)s1 | 67.8% |
| Cc1cc(=O)oc2c(CN(C)Cc3ccccc3)c(O)ccc12 | 102% |
| COC(=O)C1=CN(Cc2cccs2)C=C(C(=O)OC)C1c1cccc(O)c1 | 149% |
| Cc1ccccc1-n1c2nc(=O)n(C)c(=O)c-2cc2ccccc21 | 70.6% |
| Cc1ccccc1-n1c(O)c(/C=C/C=Nc2ccccc2)c(=O)[nH]c1=O | 56% |
| CSC(=S)N/N=C/c1ccc(N(C)C)cc1 | 79.7% |
| CCn1c(C)c(C(C)=O)c(N2CCN(c3ccccn3)CC2)nc1=S | 114% |

| Compound | inhibition |
| --- | --- |
| CCOC(=O)C1=C(CSc2nc3c(cc2C#N)CN(C)CC3)OC(N)=C(C#N)C1c1ccccc1 (stereo not drawn) | 105% |
| CCOC(=O)Cc1c(C)c2c(O)cc(O)cc2oc1=O | 66.6% |
| CCOC(=O)c1sc(Nc2nc3c(F)cccc3s2)cc1C | 99.1% |
| COC(=O)c1cc2c(-c3ccccc3)cc3ccccn3c-2c1C(=O)OC | 85.9% |
| O=C(O)CCC(=O)N1CCN(c2nc(-c3ccccc3Cl)c3cc(Br)ccc3n2)CC1 | 56.7% |
| CCOC(=O)c1sc(-c2ccc(Cl)cc2Cl)nc1O | 64.3% |
| CCn1c(=N)c(C(=O)NC)cc2c(=O)n3cccc(C)c3nc21 | 72.9% |
| CC(=O)N1CCc2c(sc(NC(=O)c3ccc4c(c3)OCCO4)c2C#N)C1 | 92.2% |
| CCc1ccc(C2=CC(c3cc(Br)ccc3F)n3ncnc3N2)cc1 (stereo not drawn) | 71.5% |
| CCN1CCc2nc(NC(=O)c3ccccc3)sc2C1 | 116% |
| N=c1oc2cc(O)ccc2cc1C(=O)Nc1nc2ccccc2s1 | 71.5% |
| CC1=C(C#N)C(C)C2=C(CC(C)(C)CC2=O)N1 (stereo not drawn) | 58.4% |
| N#C/C(=C\c1ccncc1)c1nc2c(s1)CCCC2 | 69.5% |
| COc1ccc2nccc(/C=C/c3ccnc4ccc(OC)cc34)c2c1 | 70.6% |
| CCCc1cc(=O)oc2c(CN3CCCC3)c(O)c(Cl)cc12 | 178% |
| CC1(C)CC(=O)C2=C(C1)OC(N)=C(C#N)C2c1ccccc1[N+](=O)[O-] (stereo not drawn) | 94.8% |
| CC(=O)c1sc2nc(C)c3c(c2c1N)CCCC3 | 100% |
| COCCN1C=C(C(=O)OC)C(c2ccccc2C(F)(F)F)C(C(=O)OC)=C1 | 132% |
| Cc1cc2c(c(=O)n1Cc1cccnc1)C(Cc1ccccc1)C(C#N)=C(N)O2 (stereo not drawn) | 72.8% |
| C=CCn1c(N)c(C(=O)OCCC)c2nc3ccccc3nc21 | 141% |
| Oc1cc(-n2cccn2)c(O)cc1-n1cccn1 | 91.1% |
| CCOc1cc(-c2nc3ccccc3s2)ccc1O | 130% |

| Compound | inhibition |
| --- | --- |
| Cc1ccc2nc(N3CCN(Cc4nnnn4Cc4ccccc4)CC3)c(C#N)cc2c1 | 85.1% |
| Cc1cc(/C=N/NC(=O)Cn2c3ccccc3c(=O)c3ccccc32)c(C)n1-c1ccc(Cl)cc1 | 158% |
| Cc1sc2nc3ccc(NCc4ccco4)nn3c(=O)c2c1C | 71.2% |
| CN1CCc2c(sc(/N=C/c3cccs3)c2C(N)=O)C1 | 140% |
| CN1CCC2(CC1)C1CN(C)CC=C1C(C#N)=C(N)C2(C#N)C#N (stereo not drawn) | 125% and 62.6% |
| Cc1cc(C)c2c(=O)n(CC(=O)NC3CCCC3)sc2n1 | 60.6% |
| CC(=O)c1cc2ccc(O)cc2oc1=O | 70.6% |
| CCn1nc(NC(=O)c2ccco2)c2cc3cc(C)ccc3nc21 | 58.3% |
| CCOCCCNC(=S)N1CCCN(c2nc3cc(C)c(C)cc3cc2C#N)CC1 | 73.6% |
| COc1cc(C(=S)N2CCCC2)ccc1O | 67.8% |
| O=[N+]([O-])c1ccc(CNC2CCCc3ccccc32)cc1 (stereo not drawn) | 81.8% |
| COc1ccc(OC)c(C2C3=C(CCCC3=O)Nc3c2c(=O)n(C)c(=O)n3C)c1 (stereo not drawn) | 68.2% |
| CCc1ccc(/C=C2\Oc3c(ccc(O)c3CN3CCN(C)CC3)C2=O)cc1 | 70.6% |
| Cc1cc(C)n2nc3nc4c(cc3c2n1)CCCC4 | 109% |
| CN1c2ccsc2C(O)=C(C(=S)Nc2ccc(F)c(Cl)c2)S1(=O)=O | 119% |
| CCN(C(=O)CN1CCc2ccccc21)c1c(N)n(Cc2ccccc2)c(=O)[nH]c1=O | 69.3% |
| c1ccn2c(c1)nc1c2nc2ccccn21 | 72.9% |
| CC(C)N1CCc2c(sc(N)c2C#N)C1 | 149% |
| CCc1ccc(/C=C2\Oc3c(ccc(O)c3CN3CCN(CCO)CC3)C2=O)cc1 | 70.6% |
| CCOC(=O)CSc1nc(N2CCOCC2)c2c(c1C#N)CC(C)(C)N(C)C2 | 128% |
